Patent US6835371B1 (priority 1997, dated 2004)

Experiments:
[1] = target: T1, human serotonin transporter (hSERT) (Homo sapiens, UniProt P31645); assay: biochemical
[2] = target: T1, human serotonin transporter (hSERT); assay: cell-based
[3] = HEK-hSERT cells, read-out: [3H]Serotonin Uptake IC50
[4] = Table 2, read-out: Reuptake [3H]5-HT (Ki ± SD)

T1 sequence (P31645 whole entry): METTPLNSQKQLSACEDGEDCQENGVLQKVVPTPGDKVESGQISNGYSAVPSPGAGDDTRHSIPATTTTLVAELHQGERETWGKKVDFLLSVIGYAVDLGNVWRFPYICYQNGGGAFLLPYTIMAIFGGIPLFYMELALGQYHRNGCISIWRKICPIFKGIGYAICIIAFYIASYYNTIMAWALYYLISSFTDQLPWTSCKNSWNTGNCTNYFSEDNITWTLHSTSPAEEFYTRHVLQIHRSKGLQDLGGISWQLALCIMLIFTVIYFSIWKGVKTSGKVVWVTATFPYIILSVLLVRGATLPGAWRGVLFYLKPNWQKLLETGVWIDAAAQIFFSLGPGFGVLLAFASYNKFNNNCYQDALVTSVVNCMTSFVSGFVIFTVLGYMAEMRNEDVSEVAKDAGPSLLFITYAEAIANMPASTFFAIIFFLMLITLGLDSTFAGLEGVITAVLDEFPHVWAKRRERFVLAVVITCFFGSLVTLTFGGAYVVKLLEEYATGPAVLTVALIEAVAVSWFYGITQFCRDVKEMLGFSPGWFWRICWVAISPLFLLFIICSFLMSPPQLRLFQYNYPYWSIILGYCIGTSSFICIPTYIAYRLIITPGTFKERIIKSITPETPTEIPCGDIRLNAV

SMILES	IC50 [2] [µM]	IC50 [2, 3] [µM]	other results
OC1(c2ccc(Cl)cc2)CCN(CCCCOC(c2ccc(F)cc2)c2ccc(F)cc2)CC1 [Compound 31625]			Ki [1]: > 10000 nM
Fc1ccc(C(OCCCCN2CCN(c3ccc(F)cc3)CC2)c2ccc(F)cc2)cc1 [Compound 31527]	0.44		Ki [2]: 0.44 ± 0.05 µM
O=c1[nH]c2ccccc2n1C1CCN(CCCCOC(c2ccc(F)cc2)c2ccc(F)cc2)CC1 [Compound 31649]		0.57	
OC1(c2ccc(Br)cc2)CCN(CCCCOC(c2ccc(F)cc2)c2ccc(F)cc2)CC1 [Compound 31530]		3.07	Ki [2, 4]: 3.07 ± 0.83 µM
OC1(c2ccccc2)CCN(CCCCOC(c2ccc(F)cc2)c2ccc(F)cc2)CC1 [Compound 31531]			Ki [2, 4]: 0.136 ± 0.041 µM
CC(=O)C1(c2ccccc2)CCN(CCCCOC(c2ccc(F)cc2)c2ccc(F)cc2)CC1 [Compound 31525]			Ki [1]: 126 nM; IC50 ([2]; HEK-hSERT cells, in μM, read-out: [3H]Serotonin Uptake IC50): > 10 µM; Ki ([2]; Table 2, bound given in μM, read-out: Reuptake [3H]5-HT (Ki ± SD)): > 10 µM
O=C1CN(CCCCOC(c2ccc(F)cc2)c2ccc(F)cc2)CCN1 [Compound 31524]		5.34	
Fc1ccc(C(OCCCCN2CCN(c3ccc(Cl)cc3)CC2)c2ccc(F)cc2)cc1 [Compound 31652]	0.32		
OC1CCN(CCCCOC(c2ccc(F)cc2)c2ccc(F)cc2)CC1 [Compound 31648]		0.314	
O=C1c2ccccc2C(=O)N1CCCCN1CCC(O)(c2ccc(Br)cc2)CC1 [Compound 31627]		0.361	Ki [1]: 1590 nM
Fc1ccc(C(OCCCCN2CCN(c3cccc(C(F)(F)F)c3)CC2)c2ccc(F)cc2)cc1 [Compound 31532]	3.3		Ki [2]: 3.3 ± 1.3 µM; IC50 ([2]; read-out: [3H]Serotonin Uptake IC50, HEK-hSERT cells): 3.3 µM
Fc1ccc(C(OCCCCN2CCNC(c3ccccc3)C2)c2ccc(F)cc2)cc1 (stereo not drawn) [Compound 31533]			Ki [2]: 0.7 ± 0.26 µM
NC(=O)C1CCCN(CCCCOC(c2ccc(F)cc2)c2ccc(F)cc2)C1 (stereo not drawn) [Compound 31628]		0.203	
Fc1ccc(C(OCCCCN2CCN(c3ccccc3Cl)CC2)c2ccc(F)cc2)cc1 [Compound 31626]		0.119	
Fc1ccc(C(OCCCCN2CCN(c3ccccc3F)CC2)c2ccc(F)cc2)cc1 [Compound 31526]	0.192		Ki [2]: 0.192 ± 0.021 µM
Fc1ccc(C(OCCCCN2CCN(c3ccccc3)CC2)c2ccc(F)cc2)cc1 [Compound 31653]	1.02		

Read-outs that look alike come from different tables or passages of the source.
